The values that follow come from patent publication US7399869B2, “Fibroblast activation protein inhibitor compounds and methods” (Genentech, Inc., priority 2005, dated 2008).

Format in all cases: biochemical
Data set [1] relates to T1, C[C@@H](O)[C@H](NC(=O)[C@H](CCCCNC(=O)c1ccc(/N=N/c2ccc(N(C)C)cc2)cc1)NC(=O)[C@@H](N)CCCNC(=N)N)C(=O)N[C@@H](CO)C(=O)N[C@H](CO)C(=O)N1CCC[C@H]1C(=O)N[C@@H](CC(N)=O)C(=O)N[C@@H](CCC(N)=O)C(=O)N[C@@H](CCC(=O)O)C(=O)N[C@@H](CCC(N)=O)C(=O)N[C@@H](CCC(=O)NCCNc1cccc2c(S(=O)(=O)O)cccc12)C(=O)N[C@@H](CCCNC(=N)N)C(=O)O.
T1 construct: FAP (amino acids 38-760); FLAG (N); made in house; host or cells: 293 cells (secreted, purified from serum-free conditioned media)
In words: Cleavage of FRET labelled peptide substrates by FAP. The conditions noted are these: other: FRET peptide RK(dabcyl)TS-P2-PNQEQE(edans)R cleaved by FAP, assay buffer containing 0.1 mg/ml bovine serum albumin, pH 7.4. From the text: (§1) Cleavage by FAP of model peptide substrates can be detected and quantitated where the peptide is labelled with two moieties, a fluorescent reporter and quencher, which together undergo fluorescence resonance energy transfer (FRET). Cleavage of the FRET peptide releases fluorescence, i.e. ceases quenching. which may be detected and quantitated. […] Upon cleavage of the peptide by a peptidase or protease, a detectable increase in fluorescence may be measured (Knight, C. (1995) “Fluorimetric Assays of Proteolytic Enzymes”, Methods in Enzymology, Academic Press, 248:18-34).
(§2) Protease Assays—Protease activity was monitored continuously using a SpectraMax M2 microplate reader (Molecular Devices Corp., Sunnyvale Calif.) in the kinetic mode. Assays were conducted at 23° C. in 50 mM Tris (pH 7.4), 100 mM NaCl, 1 mM EDTA. The excitation/emission wavelengths for the different fluorogenic substrates were 360/460 nm (AMC), 400/505 nm (AFC), 340/425 nm (MNA), 340/510 nm (EDANS), and 337/425 nm (Abs). Standard curves of the appropriate fluorescent product versus concentration were used to convert relative fluorescence units to nmol of product produced. Substrates in the X-Pro-AMC library were used in rate assays at 5 μM final concentration. […] The kinetic parameters were calculated from Michaelis-Menten plots (V0 versus [S]) with nonlinear regression analysis using GraphPad software. kcat values were calculated under the assumption that each protease was 100% active.

In data set [2] the test system is T2, Cc1c(CC(N)=O)c(=O)oc2cc(NC(=O)[C@@H]3CCCN3C(=O)[C@@H](C)N)ccc12.
T2 construct: FAP (amino acids 38-760); FLAG (N); made in house; host or cells: 293 cells (secreted, purified from serum-free conditioned media)
Described as above. The conditions noted are these: other: FRET peptide RK(dabcyl)TS-P2-PNQEQE(edans)R cleaved by FAP, assay buffer containing 0.1 mg/ml bovine serum albumin, pH 7.4.
From the text: as §1, §2

Data set [3] relates to T3, CC(=O)NCC(=O)N1CCCC1C(=O)Nc1ccc2c(C(F)(F)F)c(CC(N)=O)c(=O)oc2c1.
T3 construct: FAP (amino acids 38-760); FLAG (N); made in house; host or cells: 293 cells (secreted, purified from serum-free conditioned media)
In words: Hydrolysis of C-terminal coumarin dipeptide substrates by FAP (kinetic constants). The conditions noted are these: other: FAP, substrates with blocked N-termini, 23° C., pH 7.4, NC = no cleavage up to 1 mM substrate. On the procedure: (§3) The relative cleavage rates by FAP and several dipeptidases of N-blocked (8) and unblocked (7) Gly-Pro dipeptide substrates were measured.
(§4) The cleavage (hydrolysis) rates of various C-terminal coumarin dipeptide substrates 7-16 by FAP and DPP-4 were measured (Tables 4 and 5). The amino-terminus of the substrates was unblocked and the amino acids were varied in Table 4. The amino-terminus of the substrates was blocked and the amino acids were varied in Table 5. To extend the results obtained with the dipeptide substrate library, kinetic parameters were determined for cleavage of the unblocked dipeptide substrates by FAP (Table 4). The catalytic efficiency (kcat/Km) for substrate cleavage was greatest with Ile-Pro-AFC, followed by Ala-Pro-, Gly-Pro- and Phe-Pro-AFC, consistent with the dipeptide substrate library results (FIG. 5). […] Kinetic constants for cleavage of Ala-Pro-AFC and Gly-Pro-AFC by DPP-4 were determined (Table 4). The catalytic efficiency for Ala-Pro-AFC hydrolysis was greater than that for Gly-Pro-AFC, and consistent with the dipeptide library.
as §2
(§5) When saturating amounts of substrate could not be achieved, catalytic efficiencies (kcat/Km) were determined under pseudo-first order conditions ([S]<<the estimated Km) and fit to the following equation: Ln[St/S0]=−kobst, where St is the concentration of substrate remaining at time t, S0 is the initial substrate concentration and kobs is the apparent first order substrate cleavage constant equal to (kcat/Km) times ET, the total enzyme concentration (Copeland, R. (2000) Enzymes, A Practical Introduction to Structure, Mechanism, and Data Analysis, 2nd Ed., John Wiley and Sons, Inc, New York). The linear relationship of Ln[St/S0] versus time allows calculation of kcat/Km by dividing the slope of the plot by ET.

Data set [4] relates to T4, NCC(=O)N1CCCC1C(=O)Nc1ccc2c(C(F)(F)F)c(CC(N)=O)c(=O)oc2c1.
T4 construct: FAP (amino acids 38-760); FLAG (N); made in house; host or cells: 293 cells (secreted, purified from serum-free conditioned media)
The description is as above. The conditions noted are these: other: FAP, substrates with unblocked N-termini, 23° C. in 50 mM Tris-HCl, 100 mM NaCl, 1 mM EDTA, pH 7.4, NC = no cleavage up to 1 mM substrate. On the procedure: as §3, §4, §2, §5

Broadly, the Km is the concentration of substrate that gives half-maximal velocity. As usually defined, the kcat is the number of substrate molecules converted per active site and unit of time at saturation. By kcat/Km is commonly meant the second-order rate constant that governs catalysis at low substrate concentration. In the case of FAP (Homo sapiens) (sequence left out), the Km in data set [1] was found to be 0.6 ± 0.1 µM; in data set [2], 0.8 ± 0.1 µM; in data set [3] it was 330 ± 3 µM; in data set [4] it was 248 ± 12 µM. Also, the catalytic constant (kcat) in data set [1] is 2.2 ± 0.4 s⁻¹; in data set [2] it was 1.9 ± 0.1 s⁻¹; in data set [3], 7.7 ± 0.2 s⁻¹; in data set [4] it was 5.6 ± 0.2 s⁻¹. In addition, the specificity constant (kcat/Km) stood at 3.5e+06 M⁻¹ s⁻¹ in data set [1], 2.5e+06 M⁻¹ s⁻¹ in data set [2], 23000 M⁻¹ s⁻¹ in data set [3] and 23000 M⁻¹ s⁻¹ in data set [4].
